The source of these data is PubChem BioAssay (NCI).

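96-well plates; 48 h exposure; 5 concentrations. Endpoints by linear interpolation between flanking doses. Not reached: highest tested concentration assigned. At the GI50, growth is halved. At the TGI there is no net growth.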

For this assay, the system named is NCI-H322M lung. Briefly: growth of human tumour cells (NCI), 48 h.
Turning to `O=C(c1ccc(O)cc1)C1[C@H](c2ccc(Cl)cc2)[C@@H](c2ccccc2)NC12C(=O)Nc1ccccc12` (some centres undefined), the GI50 is 6.04 µM and the TGI worked out at 11.7 µM.
The like results for `O=C(CSc1nc2ccccc2c(=O)n1-c1ccc(Cl)cc1)Nc1ccc(-c2nc3ccc([N+](=O)[O-])cc3[nH]2)cc1` were, in that order, 3.14 µM and 24.5 µM.
The matching figures for `N#Cc1c(-c2ccccc2Cl)cc(-c2ccc3ccccc3c2)[nH]c1=O`: 26.7 µM and over 100 µM.
The like results for `COc1cccc2nc(Nc3ccc(F)c(NC(=O)c4ccc(CN5CCN(C)CC5)c(C(F)(F)F)c4)c3)ccc12` were, in that order, 15.2 µM and 28.8 µM.
Take `N#Cc1ccc(/C=N/NC(=O)c2[nH]c3ccc(Br)cc3c2-c2ccccc2)o1`: the GI50 was 0.708 µM and the TGI was determined as 18.8 µM.
The like results for `O=c1oc2ccc(-c3ccc(F)cc3F)cc2c(=O)n1-c1ccc(F)cc1` were, in that order, 2.78 µM and 14.1 µM.
The matching figures for `Cc1cc(C)cc(Oc2cccc(-c3c(C)nnn3C3CCN(CCN(C)C)CC3)n2)c1`: 4.22 µM and 21.4 µM.
